# Source: the supplement of paper PMC8728848
# This is one part of the list.
# B1: PV12658A-bvu-496-32-496 (Bacteroides vulgatus) (protein)
# chain: DLDGAITTPAAVELALNGIYYSLPGNGFNVIFPTVSGSFKAGTMWRQEIVSAGNAVYYSERMLPTLSFSDATEWDADYAVIKNANFLETACNRMSDGEFSGNRRAEVLGEIAYLRALAYFNILVRYCEFWDMNSEYGVVMRNEAPSVSNALKARSSVADSYQYILDQLEIAIEKAPDWKKLSQASKEAAKALKARVLLYAGKYTEAVAAVNDAIDTNSPLPEANYGDVFDKFSTTKEILFARVFDQKDATNTSTRQQCYGNSPTKKQGYWGPTNEYVELVGDDPRADAIFSKVDSLMDSRSSAVAYNLKSVKKLLNDANDMPVIFSRVSELYLIKAEALYRSGASISEAYAPIRKLRERAGAEIILPANNEELETAIFNEWMLELSFENWHEWFAMIRFAGYTEKPDFTRLLALNKTLREALEKEYEKSEAQGDNYYQRIIDRRIDAIPSSEISSNLECKQNPGY
# How the values were obtained:
# Assay in all cases: glycan array binding signal (z-score within array); higher = stronger binding
# Conditions in all cases: glycan notation: IUPAC condensed, linker removed
# Fuc(a1-2)Gal = molecular target: Fuc(a1-2)Gal
# Method in brief: (§1)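 Negative Z-scores can be read as non-binding. The Z-score is calculated within each array and then averaged across arrays of one protein sequence at different concentrations or buffers and across linkers. Arrays, 3228 in all, were curated from the Consortium for Functional Glycomics database and kept only where the protein sequence was available.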
# Fuc(a1-2)Gal(b1-3)GalNAc = molecular target: Fuc(a1-2)Gal(b1-3)GalNAc
# Method in brief: as §1
# [1] = molecular target: Fuc(a1-2)Gal(b1-3)GalNAc(a1-3)[Fuc(a1-2)]Gal(b1-4)Glc
# Method in brief: as §1
# [2] = molecular target: Fuc(a1-2)Gal(b1-3)GalNAc(a1-3)[Fuc(a1-2)]Gal(b1-4)GlcNAc
# Method in brief: as §1
# [3] = molecular target: Fuc(a1-2)Gal(b1-3)GalNAc(b1-3)Gal
# Method in brief: as §1
# [4] = molecular target: Fuc(a1-2)Gal(b1-3)GalNAc(b1-3)Gal(a1-4)Gal(b1-4)Glc
# Method in brief: as §1
# [5] = molecular target: Fuc(a1-2)Gal(b1-3)GalNAc(b1-4)[Neu5Ac(a2-3)]Gal(b1-4)Glc
# Method in brief: as §1
# Fuc(a1-2)Gal(b1-3)GlcNAc = molecular target: Fuc(a1-2)Gal(b1-3)GlcNAc
# Method in brief: as §1
# [6] = molecular target: Fuc(a1-2)Gal(b1-3)GlcNAc(b1-2)Man(a1-3)[Fuc(a1-2)Gal(b1-3)GlcNAc(b1-2)Man(a1-6)]Man(b1-4)GlcNAc(b1-4)GlcNAc
# Method in brief: as §1
# [7] = molecular target: Fuc(a1-2)Gal(b1-3)GlcNAc(b1-2)Man(a1-3)[Fuc(a1-2)Gal(b1-3)GlcNAc(b1-2)Man(a1-6)]Man(b1-4)GlcNAc(b1-4)[Fuc(a1-6)]GlcNAc
# Method in brief: as §1
# [8] = molecular target: Fuc(a1-2)Gal(b1-3)GlcNAc(b1-3)Gal(b1-4)Glc
# Method in brief: as §1
# [9] = molecular target: Fuc(a1-2)Gal(b1-3)GlcNAc(b1-3)GalNAc
# Method in brief: as §1
# [10] = molecular target: Fuc(a1-2)Gal(b1-3)GlcNAc(b1-3)[Fuc(a1-2)Gal(b1-3)GlcNAc(b1-6)]GalNAc
# Method in brief: as §1
# [11] = molecular target: Fuc(a1-2)Gal(b1-3)GlcNAc(b1-3)[Gal(b1-4)GlcNAc(b1-6)]Gal(b1-4)Glc
# Method in brief: as §1
# [12] = molecular target: Fuc(a1-2)Gal(b1-3)GlcNAc(b1-3)[Neu5Ac(a2-6)Gal(b1-4)GlcNAc(b1-6)]Gal(b1-4)Glc
# Method in brief: as §1
# [13] = molecular target: Fuc(a1-2)Gal(b1-3)GlcNAc6S
# Method in brief: as §1
# [14] = molecular target: Fuc(a1-2)Gal(b1-3)[Fuc(a1-4)]GlcNAc
# Method in brief: as §1
# [15] = molecular target: Fuc(a1-2)Gal(b1-3)[Fuc(a1-4)]GlcNAc(b1-2)Man(a1-3)[Fuc(a1-2)Gal(b1-3)[Fuc(a1-4)]GlcNAc(b1-2)Man(a1-3)]Man(b1-4)GlcNAc(b1-4)GlcNAc
# Method in brief: as §1
# [16] = molecular target: Fuc(a1-2)Gal(b1-3)[Fuc(a1-4)]GlcNAc(b1-2)Man(a1-3)[Fuc(a1-2)Gal(b1-3)[Fuc(a1-4)]GlcNAc(b1-2)Man(a1-6)]Man(b1-4)GlcNAc(b1-4)[Fuc(a1-6)]GlcNAc(b1-4)[Fuc(a1-6)]GlcNAc
# Method in brief: as §1
# [17] = molecular target: Fuc(a1-2)Gal(b1-3)[Fuc(a1-4)]GlcNAc(b1-3)[Fuc(a1-3)[Gal(b1-4)]GlcNAc(b1-6)]Gal(b1-4)Glc
# Method in brief: as §1
# [18] = molecular target: Fuc(a1-2)Gal(b1-3)[Fuc(a1-4)]GlcNAc(b1-3)[Gal(b1-4)GlcNAc(b1-6)]Gal(b1-4)Glc
# Method in brief: as §1
# Fuc(a1-2)Gal(b1-4)Glc = molecular target: Fuc(a1-2)Gal(b1-4)Glc
# Method in brief: as §1
# Fuc(a1-2)Gal(b1-4)Glc6S = molecular target: Fuc(a1-2)Gal(b1-4)Glc6S
# Method in brief: as §1
# Fuc(a1-2)Gal(b1-4)GlcNAc = molecular target: Fuc(a1-2)Gal(b1-4)GlcNAc
# Method in brief: as §1
# [19] = molecular target: Fuc(a1-2)Gal(b1-4)GlcNAc(b1-2)Man
# Method in brief: as §1
# [20] = molecular target: Fuc(a1-2)Gal(b1-4)GlcNAc(b1-2)Man(a1-3)[Fuc(a1-2)Gal(b1-4)GlcNAc(b1-2)Man(a1-6)]Man(b1-4)GlcNAc(b1-4)GlcNAc
# Method in brief: as §1
# [21] = molecular target: Fuc(a1-2)Gal(b1-4)GlcNAc(b1-2)Man(a1-3)[Fuc(a1-2)Gal(b1-4)GlcNAc(b1-2)Man(a1-6)]Man(b1-4)GlcNAc(b1-4)[Fuc(a1-6)]GlcNAc
# Method in brief: as §1
# [22] = molecular target: Fuc(a1-2)Gal(b1-4)GlcNAc(b1-2)[Fuc(a1-2)Gal(b1-4)GlcNAc(b1-4)]Man(a1-3)[Fuc(a1-2)Gal(b1-4)GlcNAc(b1-2)Man(a1-6)]Man(b1-4)GlcNAc(b1-4)GlcNAc
# Method in brief: as §1
# [23] = molecular target: Fuc(a1-2)Gal(b1-4)GlcNAc(b1-3)Gal(b1-4)GlcNAc
# Method in brief: as §1
# [24] = molecular target: Fuc(a1-2)Gal(b1-4)GlcNAc(b1-3)Gal(b1-4)GlcNAc(b1-2)Man(a1-3)[Fuc(a1-2)Gal(b1-4)GlcNAc(b1-3)Gal(b1-4)GlcNAc(b1-2)Man(a1-6)]Man(b1-4)GlcNAc(b1-4)GlcNAc
# Method in brief: as §1
binder,measurement,setting,value
B1,glycan array binding signal (z-score),Fuc(a1-2)Gal,-0.214
same,glycan array binding signal (z-score),Fuc(a1-2)Gal(b1-3)GalNAc,-0.423
same,glycan array binding signal (z-score),[1],-0.452
same,glycan array binding signal (z-score),[2],-0.281
same,glycan array binding signal (z-score),[3],0.301
same,glycan array binding signal (z-score),[4],-0.139
same,glycan array binding signal (z-score),[5],-0.212
same,glycan array binding signal (z-score),Fuc(a1-2)Gal(b1-3)GlcNAc,-0.196
same,glycan array binding signal (z-score),[6],0.065
same,glycan array binding signal (z-score),[7],-0.166
same,glycan array binding signal (z-score),[8],-0.333
same,glycan array binding signal (z-score),[9],-0.384
same,glycan array binding signal (z-score),[10],0.662
same,glycan array binding signal (z-score),[11],-0.304
same,glycan array binding signal (z-score),[12],-0.281
same,glycan array binding signal (z-score),[13],-0.045
same,glycan array binding signal (z-score),[14],-0.344
same,glycan array binding signal (z-score),[15],-0.007
same,glycan array binding signal (z-score),[16],0.206
same,glycan array binding signal (z-score),[17],-0.507
same,glycan array binding signal (z-score),[18],-0.34
same,glycan array binding signal (z-score),Fuc(a1-2)Gal(b1-4)Glc,-0.117
same,glycan array binding signal (z-score),Fuc(a1-2)Gal(b1-4)Glc6S,-0.163
same,glycan array binding signal (z-score),Fuc(a1-2)Gal(b1-4)GlcNAc,-0.367
same,glycan array binding signal (z-score),[19],-0.199
same,glycan array binding signal (z-score),[20],-0.014
same,glycan array binding signal (z-score),[21],0.201
same,glycan array binding signal (z-score),[22],0.13
same,glycan array binding signal (z-score),[23],-0.446
same,glycan array binding signal (z-score),[24],0.017
